Values marked as one replicate rest on one cluster of the flow cell; about a third of the high ones do not repeat.
Tested on: ATP
Assay: switch fluorescence ratio, 500 uM ATP over buffer (Cy3 cluster intensity, sum of 5 cycles each) (fold (ratio)); higher = stronger signal-on switching upon ATP binding; sequences stand for … in TCGTCGGCAGCGTCAGATGTGTATAAGAGACAGTTTTTTTTTTTTTTTTTTTTTTTTT…TC
Settings: aptamer strand: ATP DNA aptamer (quencher-CACCTGGGGGAGTATTGCGGAGGAAGG + anchor), 100 nM annealed; ATP concentration: 500 uM; one replicate
Method in brief: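 The fluorescence ratio divides summed target-cycle Cy3 intensity by summed buffer-cycle Cy3 intensity for each cluster and is averaged per switch-domain sequence. Cy3-labelled switching-strand clusters on a modified Illumina MiSeq flow-cell were annealed to 100 nM quencher-labelled ATP aptamer, then imaged in selection buffer and again after 15 min with 500 uM ATP at 22 °C. Five such cycles were run, with NaOH stripping and re-annealing between them, and clusters outside 100-1000 RFU were excluded.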
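Note: ATP exposure 15 min at 22 °C before imaging.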

| Sequence | switch fluorescence ratio |
| --- | --- |
| TCCGGGGGTT | 0.948 |
| AGGCGATTGC | 1 |
| TTAGATCAAA | 1.02 |
| TTATCACGAG | 0.98 |
| CCGGAGAGAG | 2.31 |
| TATTTTACGG | 1.01 |
| ATAATAGCAG | 0.947 |
| TACTCATTAT | 1.02 |
| CCAATCGGCG | 1.03 |
| GCCTGATGAG | 0.998 |
| GGACGACGCA | 1.6 |
| CGGCGCCAGA | 0.976 |
| GGCAGCTCCG | 1.03 |
| ATCCGTTTCA | 0.995 |
| TTCACACGAA | 1.25 |
| AACGATGTGG | 1 |
| TTTGATCCCT | 1.03 |
| CATCATTCAG | 0.994 |
| TGTCGGAACA | 0.943 |
| AGCTGATCAC | 1.09 |
| ATTCACTCGA | 1.03 |
| CAAGGATGAG | 0.983 |
| AGCGTAGCTG | 1.03 |

| Sequence | switch fluorescence ratio |
| --- | --- |
| ATCGAAGGG | 1.01 |
| TCCCAACGTG | 1.11 |
| ACGGGGAGTG | 0.936 |
| TACGGGAGTT | 0.987 |
| CCTTGATCCC | 1.09 |
| CCCACGGATT | 1.04 |
| CCTACGATTC | 5.48 |
| GCAGACTACC | 1.92 |
| TTGATACTTA | 0.96 |
| GGGCAGTCGA | 0.992 |
| CGCCGGGGTG | 1.06 |
| CATGAGATAA | 1.02 |
| AACGCCCCCG | 1.12 |
| AAGCGAAGTT | 0.993 |
| TAAGTGCTAA | 1 |
| GTTGAATAAA | 1.02 |
| TCGCATTTGT | 1.06 |
| GCACGATCTA | 1.02 |
| GGGGCCAGTG | 0.972 |
| TTGAAAAACT | 1.79 |
| ATAAATAGGT | 0.984 |
| CATTTAGAC | 0.969 |
| TGCCCCGGAT | 0.999 |

| Sequence | switch fluorescence ratio |
| --- | --- |
| AGCTTAGGAA | 0.998 |
| TCCATTTTGA | 1.03 |
| ACAAAAAGGA | 1.03 |
| TGTAAGATAT | 0.97 |
| TCCAACGGCC | 1.08 |
| CACGATATTT | 1.07 |
| ATAGGCGCCG | 1.01 |
| CACGCCTAGG | 1.13 |
| TGAGCATTCG | 1.09 |
| GCCAGGGCGG | 0.984 |
| TATCGGTGAA | 0.955 |
| GTGCTGCGGA | 1.03 |
| GATTTAGGAT | 1.03 |
| CACGTCACAT | 1.51 |
| TGACCCTACA | 1.29 |
| GGGACGTT | 1.03 |
| TTGAGCGCGT | 0.98 |
| GTCCCAGTAT | 1.02 |
| TCAGGAAAAA | 1.1 |
| TAACAGCTTT | 1.06 |
| GGATACACGT | 1.03 |
| CGTCTGTCCA | 1.01 |
| GTTGTGAGAC | 1.02 |

| Sequence | switch fluorescence ratio |
| --- | --- |
| CGGGAACCGA | 0.983 |
| GCTCTTGCAC | 1.03 |
| ATTGTTAGTA | 0.991 |
| ATCTCGAGGT | 0.962 |
| AGCGTCCAGC | 1.04 |
| AAAAAGTCCT | 1.03 |
| TCTTAAGTG | 0.978 |
| CAATTACAGT | 1.03 |
| TAGGACACTG | 1.02 |
| TCAACATACG | 1.41 |
| GGGACATTT | 1.03 |
| ATGCCGCCGC | 1.04 |
| TCTCCGGTAA | 4.58 |
| AAGGGGAGTA | 0.928 |
| AGCTATTACC | 1.11 |
| ATGCAATGCG | 1.63 |
| GGTGCCCGTT | 1.05 |
| TAAGCAATGA | 2.83 |
| TCAGAGTTGG | 0.978 |
| ATTTGGGGCG | 0.99 |
| AGAACATGGG | 1 |
| TAGTGTTCTT | 0.957 |
| ATCTCGTCGA | 1.01 |

| Sequence | switch fluorescence ratio |
| --- | --- |
| TTGGAAGAAC | 0.95 |
| CAAATTCGTT | 0.992 |
| AAACGGGAGG | 1.01 |
| CACTAACGAT | 1.26 |
| TTAAATTAGG | 1.04 |
| AGTTCACGG | 1.05 |
| GGAACCGCCA | 1.4 |
| TATGTGCATG | 1.02 |
| TACAGTACGC | 1.38 |
| TGCTTACGC | 1.06 |
| GTCGAAGC | 1.05 |
| CTGGTTGAT | 1.17 |
| CAGGTTAGAC | 1.34 |
| CCTGCGCGT | 5.61 |
| GTCGTTAGAA | 0.967 |
| GTTGGCGACA | 0.993 |
| TATGGCCGCT | 0.991 |
| ACGTTCTTAG | 1.01 |
| CGAGAGACTA | 1 |
| CGGCGTCAAT | 2.47 |
| TAAGTAGTCT | 1.01 |
| TCACCGCGTT | 1.75 |
| CTGGTTTATT | 0.993 |

| Sequence | switch fluorescence ratio |
| --- | --- |
| ATCCGGGCTA | 0.986 |
| CTAGGATCCT | 0.973 |
| CGGTGTTCTG | 1 |
| TAATCAAGTG | 0.994 |
| TGAATGCATT | 1.03 |
| GATGGTTTGC | 0.991 |
| AATTGTTTT | 1.02 |
| AAAGCGTCTT | 0.996 |
| TCATCAAAAT | 1.11 |
| TAATGAGATG | 1.08 |
| GCCAGTCC | 1.05 |
| AGTGACCACA | 1.05 |
| CGGGTGTCCA | 0.999 |
| TTCTTGCAAG | 0.957 |
| CAGGCAGCGC | 1.04 |
| TTTTATCAAC | 1.03 |
| GCTTTACTAT | 0.989 |
| CGTGGAGCCC | 0.95 |
| GACCAAAACC | 1.04 |
| GCCCAATCAT | 0.96 |
| CAATCTAGCA | 1.02 |
| GACACACTAG | 1.14 |
| TATGCCTGAA | 0.978 |

| Sequence | switch fluorescence ratio |
| --- | --- |
| AACTTACGTT | 1.31 |
| CAGAGGTAAA | 1.01 |
| TTCGACGATT | 0.993 |
| TCATTGGCTC | 1.05 |
| TGACGACTGG | 1.06 |
| GAGGCAGATG | 1.04 |
| AGTTGTGCAT | 1.02 |
| GACTAAGCTA | 1.15 |
| CGTTAGGGC | 1.01 |
| TTTTGCCGGG | 0.947 |
| CTAATGGTT | 0.964 |
| ATGGATCAGA | 0.969 |
| AGAAGTCAAA | 0.996 |
| ATGTTGCAGC | 0.966 |
| CAGTGATGA | 1.04 |
| ATAAGTGGCT | 0.938 |
| ATTGGTTAAT | 0.938 |
| CCAAGTAGCG | 0.983 |
| TATACACTAA | 1.22 |
